# In publication PMC4336329 (PLoS ONE, 2015):
# Screen size: about 310,000 compounds; about 14,000 (4.5%) showed an effect of 50% or more. Effects have a minus sign here. The list shows a part of the results.
# Biological target: human ether-à-go-go-related gene (hERG) potassium channel (human, UniProt Q12809)
# Assay: primary screen, population patch clamp on CHO cells stably expressing hERG
# 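Further: peak tail current of the secondary pulse compared with the same well before compound.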
# Chain of human ether-à-go-go-related gene (hERG) potassium channel (Q12809 whole entry, looked up): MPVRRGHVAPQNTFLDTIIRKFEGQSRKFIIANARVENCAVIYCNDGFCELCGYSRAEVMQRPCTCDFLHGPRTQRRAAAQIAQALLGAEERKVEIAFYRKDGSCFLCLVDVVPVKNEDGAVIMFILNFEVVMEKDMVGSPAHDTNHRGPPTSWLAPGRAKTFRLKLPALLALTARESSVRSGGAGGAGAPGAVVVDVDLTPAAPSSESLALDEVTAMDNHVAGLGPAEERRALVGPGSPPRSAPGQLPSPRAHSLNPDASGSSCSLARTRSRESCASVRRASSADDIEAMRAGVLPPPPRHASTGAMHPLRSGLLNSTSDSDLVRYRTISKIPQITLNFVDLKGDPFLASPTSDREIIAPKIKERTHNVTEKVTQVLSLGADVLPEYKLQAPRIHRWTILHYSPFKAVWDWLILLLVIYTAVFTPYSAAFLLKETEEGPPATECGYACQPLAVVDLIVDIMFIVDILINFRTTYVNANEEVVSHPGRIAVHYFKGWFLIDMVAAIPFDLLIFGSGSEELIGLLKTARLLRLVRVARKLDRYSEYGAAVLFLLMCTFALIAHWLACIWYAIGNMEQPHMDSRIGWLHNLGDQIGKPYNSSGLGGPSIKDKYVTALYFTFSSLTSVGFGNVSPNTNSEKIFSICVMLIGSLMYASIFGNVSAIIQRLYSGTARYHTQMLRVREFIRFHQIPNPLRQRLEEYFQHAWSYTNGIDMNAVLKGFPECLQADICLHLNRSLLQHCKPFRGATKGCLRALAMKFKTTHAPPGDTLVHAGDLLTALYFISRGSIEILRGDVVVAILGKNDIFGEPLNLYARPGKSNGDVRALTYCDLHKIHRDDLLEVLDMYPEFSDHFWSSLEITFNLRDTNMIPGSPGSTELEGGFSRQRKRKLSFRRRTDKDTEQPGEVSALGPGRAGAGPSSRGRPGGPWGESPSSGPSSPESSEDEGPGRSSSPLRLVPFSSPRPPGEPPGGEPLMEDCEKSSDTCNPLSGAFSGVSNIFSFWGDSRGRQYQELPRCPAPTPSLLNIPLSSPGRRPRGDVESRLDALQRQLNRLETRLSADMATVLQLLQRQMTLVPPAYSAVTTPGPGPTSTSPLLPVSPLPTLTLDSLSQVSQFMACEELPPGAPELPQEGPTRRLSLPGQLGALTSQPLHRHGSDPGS
row,Structure (SMILES),"hERG current change (%, negative = inhibition) at 10uM"
1,Cc1cc(C)c(S(=O)(=O)Nc2cccc(S(=O)(=O)N3CCOCC3)c2)c(C)c1,-6.2%
2,Cc1nn(Cc2ccccc2Cl)c(C)c1C(=O)NCC(c1cccs1)N1CCOCC1 (stereo not drawn),-9.56%
3,O=c1[nH]c(=S)n(-c2ccccc2)c(O)c1/C=N/N1CCOCC1,-2.11%
4,Cc1ccc2[nH]c3c(c2c1)CN(C(=O)CN1CCN(c2cccc(C)c2C)CC1)CC3.Cl,2.08%
5,CC(C)C(=O)Nc1ccc2c(c1)nc(CCN1CCCCC1)n2C,-0.778%
6,COCCCC1CCN(C(=O)C2CCC(=O)N(Cc3ccccc3F)C2)CC1 (stereo not drawn),1.69%
7,S=c1[nH]nc(-c2ccccn2)n1/N=C/c1ccc(Br)s1,20.8%
8,O=C(Nc1ccc2[nH]ncc2c1)c1ccccc1Br,7.25%
9,O=C(Nc1ccc(Cl)cc1)c1cccc(S(=O)(=O)Nc2ccccn2)c1,-6.23%
10,COC(=O)C1=CC(C(=O)c2cccs2)=NN(c2ccc(OC)cc2)C1C(=O)OC (stereo not drawn),-12.8%
11,CC1(C)Cc2cccc(OCC(=O)NCc3ccccc3F)c2O1,-5.79%
12,CC(C)c1ccc(C(=O)Nc2nnc(S(=O)(=O)N3CCCCC3)s2)cc1,20%
13,Cc1cccc2sc(N3CCN(C(=O)c4cccs4)CC3)nc12,-9.51%
14,Cc1sc(NC(=O)CN(CCc2ccccc2)C(=O)C2CC2)c(C(N)=O)c1C,-12%
15,O=C(c1ccccc1Br)N(Cc1ccccc1)c1ccccc1,14.6%
16,Cc1ccc(C(=O)CCC(=O)N(C)CC(=O)Nc2c(Cl)cccc2Cl)cc1,8.91%
17,COc1ccccc1OCCCCCc1c(C)n[nH]c1C,-4.16%
18,COc1cc(NC(=O)c2c(OC)cccc2OC)ccc1NC(=O)c1cc2ccccc2o1,10.4%
19,O=C1C2C3C=CC(C3)C2C(=O)N1c1ccc2ccccc2c1 (stereo not drawn),13.3%
20,CCn1cc(C(=O)O)c(=O)c2cc(F)c(N3CCN(C(=S)NC(=O)c4ccccc4)CC3)cc21,13.7%
21,Cc1cc2oc(C(=O)Nc3c(C)n(C)n(-c4ccccc4)c3=O)c(C)c2cc1C,-24%
22,COc1ccc(S(=O)(=O)NCc2ccc(F)cc2)cc1OC,5.39%
23,COc1ccccc1CN1CC(C(=O)NCc2cnn(C)c2)CCC1=O (stereo not drawn),13.6%
24,CCC(C)NC(=O)COc1ccc(S(=O)(=O)N2CCOCC2)cc1 (stereo not drawn),-11.6%
